From article PMC4336329 (PLoS ONE, 2015)
Hit rate of the full screen: of about 310,000 compounds, about 14,000 (4.5%) showed an effect of 50% or more. Effects have a minus sign here. This is one part of the list.

Each compound was assayed against human ether-à-go-go-related gene (hERG) potassium channel (human, UniProt Q12809) (assay: primary screen, population patch clamp on CHO cells stably expressing hERG).
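Note: peak tail current of the secondary pulse compared with the same well before compound.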

Chain of human ether-à-go-go-related gene (hERG) potassium channel (Q12809 whole entry, looked up): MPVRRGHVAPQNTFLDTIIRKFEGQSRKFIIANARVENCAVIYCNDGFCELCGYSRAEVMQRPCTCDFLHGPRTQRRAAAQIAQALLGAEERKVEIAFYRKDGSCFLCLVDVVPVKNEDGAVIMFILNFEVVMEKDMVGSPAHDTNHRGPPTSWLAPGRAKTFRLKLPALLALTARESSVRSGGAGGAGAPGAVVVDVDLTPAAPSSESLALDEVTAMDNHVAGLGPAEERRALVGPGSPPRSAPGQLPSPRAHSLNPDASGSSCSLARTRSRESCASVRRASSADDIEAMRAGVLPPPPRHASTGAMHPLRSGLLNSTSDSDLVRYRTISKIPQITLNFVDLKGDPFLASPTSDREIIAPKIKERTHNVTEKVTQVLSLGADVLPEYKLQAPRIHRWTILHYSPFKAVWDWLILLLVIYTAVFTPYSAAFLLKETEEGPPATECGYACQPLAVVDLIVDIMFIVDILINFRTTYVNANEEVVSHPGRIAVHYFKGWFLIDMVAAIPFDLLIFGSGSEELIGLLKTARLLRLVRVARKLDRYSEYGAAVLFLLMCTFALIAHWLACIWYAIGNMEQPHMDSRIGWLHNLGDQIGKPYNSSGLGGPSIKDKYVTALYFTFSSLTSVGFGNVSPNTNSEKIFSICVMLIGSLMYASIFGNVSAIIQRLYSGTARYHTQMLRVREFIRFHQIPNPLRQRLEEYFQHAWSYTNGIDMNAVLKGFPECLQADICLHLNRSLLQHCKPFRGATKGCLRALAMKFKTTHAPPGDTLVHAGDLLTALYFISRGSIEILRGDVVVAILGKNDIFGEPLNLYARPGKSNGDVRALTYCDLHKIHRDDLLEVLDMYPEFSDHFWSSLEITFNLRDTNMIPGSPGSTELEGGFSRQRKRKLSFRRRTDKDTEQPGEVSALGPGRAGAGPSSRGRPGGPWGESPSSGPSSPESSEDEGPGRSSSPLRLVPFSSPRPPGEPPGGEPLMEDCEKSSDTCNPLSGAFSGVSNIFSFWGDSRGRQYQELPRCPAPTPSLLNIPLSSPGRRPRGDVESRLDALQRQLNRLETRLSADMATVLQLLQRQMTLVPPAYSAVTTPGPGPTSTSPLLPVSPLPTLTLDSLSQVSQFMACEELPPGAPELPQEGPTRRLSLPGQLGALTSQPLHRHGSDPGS

First: CC(C)OC(=O)c1cc(NC(=O)c2nn(C)cc2Br)cc(C(=O)OC(C)C)c1
Second: CC(=O)Nc1ccc(NC(=O)C(C)Sc2nc3nc(C)cc(C)n3n2)cc1 (centres unmarked)
The “hERG current change (%, negative = inhibition) at 10uM” value of the first is higher: 15.3% for the first, 7.98% for the second.

Compared with `Cc1cc(S(=O)(=O)N2CCN(c3c(C)cccc3C)CC2)ccc1F`, `CC1Cc2cc(S(=O)(=O)N3CCC(C(=O)N(C)Cc4ccco4)CC3)ccc2N1C(=O)C1CCC1` (centres unmarked) is lower in “hERG current change (%, negative = inhibition) at 10uM” value: -4.1% for the first, -17.2% for the second.

First: Cc1c(C(=O)NC(C)c2ccccc2)c(-c2ccccc2)nn1-c1ccccc1 (centres unmarked)
Second: CCOC(=O)C1=C(c2ccccc2)Nc2ncnn2C1c1cc(OC)ccc1OC (centres unmarked)
The “hERG current change (%, negative = inhibition) at 10uM” value of the first is higher: 12.5% for the first, -7.05% for the second.

Going from `COc1cccc(OC)c1C(=O)NC(=S)Nc1ccc(N2CCOCC2)c(Cl)c1` to `COc1cccc(NC(=O)c2sc3nc(N4CCOCC4)c4c(c3c2N)CCCC4)c1`, the “hERG current change (%, negative = inhibition) at 10uM” value rises from 19.9% to 21.1%.

First: CCC1CN(C(=O)NCc2ccc(C)cc2)c2cc(C)ccc2O1 (centres unmarked)
Second: COc1ccc(C(=O)N(CC2CCCO2)C(C(=O)NCCC(C)C)c2ccc(C)cc2)cc1OC (centres unmarked)
The “hERG current change (%, negative = inhibition) at 10uM” value of the first is higher: -3.19% for the first, -9.86% for the second.

Compared with `CNc1ccc(/C=C(\C#N)C(=O)Nc2ccccn2)cc1[N+](=O)[O-]`, `Cc1cc(=O)oc2cc(NC(=O)c3ccccc3OC(F)F)ccc12` is higher in “hERG current change (%, negative = inhibition) at 10uM” value: 25.2% for the first, 26.9% for the second.

Going from `CN1CCC(OC(=O)c2cc3cc(Cl)cc(Cl)c3oc2=O)CC1` to `Cc1ccc(C(=O)NNc2cc(=O)n(C)c(=O)n2C)cc1C`, the “hERG current change (%, negative = inhibition) at 10uM” value rises from -17.8% to 10.4%.

Compared with `CN(C)CCNC(=O)Cn1nc(C(F)F)cc1C1CC1`, `CC[N+](CC)(CC)CC(=O)Nc1c(C)cccc1C.[Br-]` is higher in “hERG current change (%, negative = inhibition) at 10uM” value: -1.27% for the first, 13.4% for the second.

First: Cc1nc(-c2cccs2)sc1C(=O)NN
Second: CN(C(=O)COc1ccccc1)c1nnc(-c2ccncc2)s1
The “hERG current change (%, negative = inhibition) at 10uM” value of the first is higher: 6.49% for the first, -9.98% for the second.

Compared with `Cc1ccc(S(=O)(=O)c2cc3c(=O)n4cccc(C)c4nc3n(Cc3ccncc3)c2=N)cc1`, `COc1ccc(NC(=O)CSCC(=O)N(C)CC(=O)Nc2c(C)cccc2C)cc1` is higher in “hERG current change (%, negative = inhibition) at 10uM” value: -40.8% for the first, -0.574% for the second.

First: O=C(NC1CCS(=O)(=O)C1)C1C2CC3CC(C2)CC1C3 (centres unmarked)
Second: COCCSc1ccccc1C(=O)Nc1ccc(Cl)cc1
The “hERG current change (%, negative = inhibition) at 10uM” value of the first is higher: 20.1% for the first, -12% for the second.

With `[O-]/C(=C(\C(=S)Nc1ccc(SC(F)F)cc1)[n+]1ccccc1)c1cc(Cl)ccc1Cl` the “hERG current change (%, negative = inhibition) at 10uM” value was 1.83%.
